Test results: publication PMC4336329 (PLoS ONE, 2015)
About 2,200 (0.71%) of roughly 310,000 compounds showed an effect of 50% or more. Effects have a minus sign here. The list shows a part of the results.

target: human ether-à-go-go-related gene (hERG) potassium channel (human, UniProt Q12809); assay: primary screen, population patch clamp on CHO cells stably expressing hERG
Sequence (Q12809 whole entry, looked up): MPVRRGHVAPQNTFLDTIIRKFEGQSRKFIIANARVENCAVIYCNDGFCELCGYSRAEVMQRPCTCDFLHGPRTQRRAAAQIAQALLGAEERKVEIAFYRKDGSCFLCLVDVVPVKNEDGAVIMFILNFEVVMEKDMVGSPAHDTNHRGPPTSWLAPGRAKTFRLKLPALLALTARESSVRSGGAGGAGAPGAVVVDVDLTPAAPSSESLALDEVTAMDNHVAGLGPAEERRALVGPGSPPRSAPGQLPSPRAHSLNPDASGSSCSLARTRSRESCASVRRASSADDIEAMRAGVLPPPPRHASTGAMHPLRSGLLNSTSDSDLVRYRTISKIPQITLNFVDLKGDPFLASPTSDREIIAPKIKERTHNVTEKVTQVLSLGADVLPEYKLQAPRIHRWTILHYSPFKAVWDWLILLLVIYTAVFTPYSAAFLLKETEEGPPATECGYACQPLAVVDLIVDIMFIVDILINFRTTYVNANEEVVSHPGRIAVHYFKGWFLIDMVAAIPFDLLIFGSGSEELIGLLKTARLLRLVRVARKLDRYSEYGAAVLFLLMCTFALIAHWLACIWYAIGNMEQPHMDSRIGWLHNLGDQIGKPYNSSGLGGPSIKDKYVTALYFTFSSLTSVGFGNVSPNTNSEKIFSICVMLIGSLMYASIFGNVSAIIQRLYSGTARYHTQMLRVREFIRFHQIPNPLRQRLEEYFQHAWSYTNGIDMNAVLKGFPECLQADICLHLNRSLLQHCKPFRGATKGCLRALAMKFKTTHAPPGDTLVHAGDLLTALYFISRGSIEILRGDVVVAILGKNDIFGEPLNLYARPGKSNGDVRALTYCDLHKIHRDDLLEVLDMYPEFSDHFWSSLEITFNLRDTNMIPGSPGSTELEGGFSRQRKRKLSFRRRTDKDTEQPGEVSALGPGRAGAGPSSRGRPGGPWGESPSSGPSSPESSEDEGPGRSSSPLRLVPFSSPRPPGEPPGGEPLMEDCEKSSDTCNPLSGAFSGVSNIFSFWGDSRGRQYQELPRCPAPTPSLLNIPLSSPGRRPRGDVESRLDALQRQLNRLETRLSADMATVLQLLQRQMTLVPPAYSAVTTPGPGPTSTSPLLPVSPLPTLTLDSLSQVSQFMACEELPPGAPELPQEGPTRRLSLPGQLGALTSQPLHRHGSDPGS

| SMILES | hERG current change (%, negative = inhibition) at 1uM |
| --- | --- |
| O=C(COC(=O)c1ccc(CNS(=O)(=O)c2ccc(F)c(Cl)c2)cc1)NCC1CCCCC1 | -0.534% |
| O=C(Nc1ccc(S(=O)(=O)N2CCCCC2)cc1)C1CC(=O)N(c2ccc(F)cc2)C1 (stereo not drawn) | 19.8% |
| Cc1cccc(N/N=C/c2ccccc2O)c1 | 8.13% |
| CCOc1ccc(Br)cc1CNCCN1CCOCC1 | 16.4% |
| N#Cc1cn(Cc2cccc(Cl)c2)c2ccccc12 | 0.952% |
| Cc1cccc(C)c1NC(=O)NC1CCc2ccccc21 (stereo not drawn) | 14.2% |
| Cc1cc(=O)[nH]c(SCC(=O)c2ccc(C(C)C)cc2)n1 | 7.25% |
| O=C(CN(c1ccccc1F)S(=O)(=O)c1ccccc1)Nc1ccccc1C(=O)N1CCOCC1 | 9.33% |
| CN(C(=O)N1CCN(c2ccccn2)CC1)c1ccccc1 | 16.8% |
| Cn1nc(C(=O)NCc2cccs2)c2ccccc2c1=O | 16.3% |
| NC(=O)C1CCN(C(=S)NCc2ccc3c(c2)OCO3)CC1 | 14.1% |
| O=C(Nc1ccc2c(c1)OCO2)c1cncc(Br)c1 | 25.2% |
| CC1=[N+]([O-])C(C)(C)C(C)N(O)C1=O (stereo not drawn) | 11.1% |
| Cc1cc(N2CCN(c3nc(-c4ccccc4)cs3)CC2)c2ccccc2n1 | -7.92% |
| Cc1ccc(C23CC4CC(CC(NC(=O)NCCN(C)C)(C4)C2)C3)cc1 | -6.95% |
| CCOC(=O)c1c(S(=O)(=O)N2CCc3ccccc32)c(C)n(C)c1C | 2.83% |
| CCn1c(SCC(=O)Nc2ccc(S(N)(=O)=O)cc2)nnc1-c1ccccc1OC | 7.25% |
| CC(C)(C)NC(=O)C12CCC(C)(c3nc4ccccc4nc31)C2(C)C (stereo not drawn) | 9.01% |
| COc1ccc(-c2noc(CN(C)C3CCOCC3)n2)cc1 | -1.29% |

| SMILES | hERG current change (%, negative = inhibition) at 1uM |
| --- | --- |
| Cc1onc(-c2ccccc2)c1CNC(=O)Nc1ccccc1 | 13.2% |
| Cc1ncc([N+](=O)[O-])n1CC(=O)NC1CCCCC1 | 5.1% |
| Cc1cccc(NC(=O)C2CCCN(C(=O)Nc3ccccc3)C2)c1C (stereo not drawn) | -1.89% |
| Cc1ccc2[nH]c3c(=O)n(CC(=O)Nc4ccccc4N4CCN(C)CC4)ncc3c2c1 | 3.92% |
| Cc1ccccc1OCCC(=O)OCC(=O)NC1CCS(=O)(=O)C1 (stereo not drawn) | 18.5% |
| O=C(NCCc1ccccc1)C1c2ccccc2C(=O)N1Cc1cccs1 (stereo not drawn) | 6.82% |
| O=C(NCc1ccccn1)C1CC(=O)N(C2CCCC2)C1 (stereo not drawn) | 11.8% |
| COc1ccc(Oc2cc(C(F)(F)F)cnc2C(N)=O)cc1 | 15.8% |
| COc1ccc(Cl)cc1N(C)C(=O)CCNC(=O)Cn1cnc2ccccc2c1=O | 11.2% |
| Cc1ccc(C)c(NC(=O)C(Sc2ncnc3ccccc23)c2ccccc2)c1 (stereo not drawn) | 7.99% |
| Cn1nnc2c(C(N)=O)ncn2c1=O | 0.556% |
| CCOC(=O)c1[nH]c2ccc(OCC)cc2c1NC(=O)CN1CCN(c2ccccn2)CC1 | -8.9% |
| CN(C)S(=O)(=O)c1ccc(NC(=O)CNc2cc(S(=O)(=O)N3CCCC3)ccc2OCC(F)(F)F)cc1 | -3.08% |
| CC1(C)CC(=O)C(C=NCCN2CCN(C3CC(=O)N(c4ccc(Br)cc4)C3=O)CC2)=C(O)C1 (stereo not drawn) | 2.91% |
| O=C(N1CCCCC1)C1(c2ccccc2)CCCCC1 | 12.9% |
| CCC(C)(C)n1nnnc1CN1CCN(c2ccc(OC)cc2)CC1 | 1.88% |
| Cc1cccc(CSc2nnc(-c3cccs3)n2Cc2ccco2)c1 | -2.15% |
| COc1ccc(C2C(C#N)=C(N)N(c3ncn[nH]3)C3=C2C(=O)CCC3)cc1 (stereo not drawn) | 25.9% |
| CCCSc1nnc(NC(=O)CSc2sc3c(O)cc(=O)[nH]c3c2C#N)s1 | -0.729% |

| SMILES | hERG current change (%, negative = inhibition) at 1uM |
| --- | --- |
| CC(=O)Nc1ccc(NC(=O)CSc2nc3nc(-c4cccs4)cc(C(F)(F)F)c3c(=O)[nH]2)cc1 | 12.7% |
| CC(=O)NCCc1ccc(S(=O)(=O)N2CCN(c3nc(-c4ccccc4)c(C)s3)CC2)cc1 | 10.7% |
| S=C(NCc1ccco1)N1CCOCC1 | 11.5% |
| CCOC(=O)c1ccc(NC(=S)N(CCCN2CCN(CC)CC2)Cc2cccs2)cc1 | -40.2% |
| O=C(/C=C/c1ccc(Cl)cc1)Nc1ccc(S(=O)(=O)Nc2ncccn2)cc1 | 4.3% |
| COc1cccc(NC(=S)N2CCN(c3ccc([N+](=O)[O-])cc3)CC2)c1 | -9.45% |
| CCC(C(=O)N1CCN(c2cccc(Cl)c2)CC1)c1ccccc1 (stereo not drawn) | 3.36% |
| O=C(c1cc2cc(C(F)(F)F)ccc2s1)N1CCOCC1 | 8.65% |
| Cc1ccc(NC(=O)c2c(-c3c(F)cccc3Cl)noc2C)cc1F | 2.88% |
| CCN(CC)c1ccc(C(=O)OCC(=O)c2ccco2)cc1 | 14.3% |
| COc1ccc(C(=O)COC(=O)CN2C(=O)C3C4CCC(C4)C3C2=O)cc1 (stereo not drawn) | 0.592% |
| O=C(c1ccncc1)N1CCN(C(=O)c2ccco2)CC1 | 11.8% |
| O=c1[nH]cc(-c2ccc(Br)cc2)n1Cc1ccccc1 | 9.7% |
| COC(=O)/C=C1\SC(N2CCOCC2)=C(c2ccc(OC)cc2)C1=O | -1.69% |
| COc1cc(NC(=O)CN2C(=O)C(C)N(c3ccc(C)cc3)C2=O)cc(OC)c1 (stereo not drawn) | 12.4% |
| CN1CC(=O)N(C)c2ncn(Cc3ccccc3)c2C1=O | 9.16% |
| O=C(Nc1nnc(CCS(=O)(=O)c2ccc(Br)cc2)s1)c1ccc([N+](=O)[O-])cc1 | -0.413% |
| CCN(CC)S(=O)(=O)c1ccc(C)c(N=C=S)c1 | 11.2% |
| O=S1(=O)CC2NC(=S)N(c3cccc(Br)c3)C2C1 (stereo not drawn) | 13.8% |
